{"source": "PubChem BioAssay AID686978", "about": "(National Center for Advancing Translational Sciences (NCATS), 2013)", "note": "Screen size: about 420,000 compounds; about 64,000 (15%) were called active. The inconclusive results got no clear call from the source; some entries with a clear call stand among them for comparison. The call rests on the fitted dose curve; in most records, active means well fitted inhibition curve with a large enough effect; inconclusive means small, poorly fitted or top-dose-only effect; inactive means flat fitted curve, though single readings scatter. No potency is given beside an inconclusive call; the fits are too rough.", "data": [{"assay": "qHTS for Inhibitors of human tyrosyl-DNA phosphodiesterase 1 (TDP1): qHTS in cells in absence of CPT; further: nearly all actives have a fitted effect of over 55% in size; further: potency means the concentration at half of the fitted maximal effect; tags describe the fitted curve by direction and shape; on activity change, negative = growth inhibition: on the % scale 0 is the no-effect control and ±100 the full control effect", "conditions": "DT40 Tdp1-/- hTDP1 cells, no CPT, ATP luminescence, 48 h; activity change, negative = growth inhibition: at 46.2 µM (top of the series) unless noted", "procedure,_shortened": "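No-CPT arm: Tdp1-/-;hTDP1 DT40 cells (400/well) plus compounds, incubated ≥48 hr at 37 °C. Readout CellTiter-Glo luminescence.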", "values": [{"compound": "CCCCn1c(=N)n(CC(O)COc2ccccc2)c2ccccc21", "note": "(stereo unspecified)", "Potency": "active: 11.6 µM"}, {"compound": "CCC1(c2ccccc2)NC(=O)N(CC(=O)Nc2ccc(N3CCOCC3)cc2)C1=O", "note": "(stereo unspecified)", "activity change, negative = growth inhibition": "inactive: 0.277%"}, {"compound": "COc1cc2nc(N3CCN(C(=O)C4CCCO4)CC3)nc(N)c2cc1OC", "note": "(stereo unspecified)", "Potency": "inactive"}, {"compound": "COc1ccc(Nc2nc(NCC3CCCO3)nc(N)c2[N+](=O)[O-])cc1", "note": "(stereo unspecified)", "Potency": "inconclusive [inhibitor, partial curve]"}, {"compound": "CCCn1nc(NC(=O)c2ccccn2)c2cc3cc(C)ccc3nc21", "Potency": "inconclusive [inhibitor, single point]"}, {"compound": "COc1ccc(C(=O)NC2CCN(C(=S)NCCc3ccccc3)CC2)cc1", "Potency": "inconclusive [inhibitor, single point]"}, {"compound": "O=C(NCCc1ccc(Cl)cc1)c1cccc(S(=O)(=O)N2CCCC2)c1", "Potency": "inconclusive [inhibitor, single point]"}, {"compound": "CCOC(=O)N1CCN(c2ccc(C(=O)c3cccc(F)c3)cc2)CC1", "Potency": "active: 20.6 µM"}, {"compound": "COc1cccc2sc3ccc(C#CC4(N)CCCCC4)cc3c(=O)c12", "Potency": "active: 14.6 µM"}, {"compound": "Cc1cc(Br)c(OCc2ccc(C(=O)N/N=C/c3ccc[nH]3)cc2)c(Br)c1", "Potency": "inconclusive [inhibitor, single point]"}, {"compound": "Cc1ccc(-c2nnc(N3CCC(C)CC3)c3ccccc23)cc1", "Potency": "active: 8.2 µM"}, {"compound": "CCc1nc2nc(C)cc(Nc3ccc(Br)cc3F)n2n1", "Potency": "inconclusive [inhibitor, single point]"}, {"compound": "NS(=O)(=O)c1ccc(Cl)cc1[N+](=O)[O-]", "Potency": "inconclusive [inhibitor, single point]"}, {"compound": "CCOC(=O)N1CCN(CC(=O)Nc2nc3ccc(OC)cc3s2)CC1", "Potency": "inconclusive [inhibitor, single point]"}, {"compound": "COc1ccc(Cl)cc1/C=C(\\C#N)C(N)=O", "Potency": "inconclusive [inhibitor, single point]"}, {"compound": "CCSc1nnc(Cn2c(=O)sc3ccccc32)n1-c1ccccc1C", "Potency": "inconclusive [inhibitor, partial curve, poor fit]"}, {"compound": "COCC(=O)N1CCC2(CC1)CN(Cc1cc(C(F)(F)F)cc(C(F)(F)F)c1)C2", "activity change, negative = growth inhibition": "inactive: -5.61%"}, {"compound": "COc1ccccc1-c1cc(C(F)(F)F)nc(S(=O)(=O)CCCC(=O)Nc2cc(C)ccc2O)n1", "activity change, negative = growth inhibition": "inactive: -16.7%"}, {"compound": "Cc1ccc(C(C2=C(O)CC(C)(C)CC2=O)C2C(=O)CC(C)(C)CC2=O)s1", "note": "(stereo unspecified)", "activity change, negative = growth inhibition": "inactive: -24.2%"}, {"compound": "O=C(Nc1nc(-c2ccc(-c3ccccc3)cc2)cs1)C1=COCCO1", "Potency": "inconclusive [inhibitor, single point]"}, {"compound": "CO/N=C/CC(=O)c1cnc(-c2ccc(Cl)cc2)s1", "Potency": "inconclusive [inhibitor, single point]"}, {"compound": "CC1(C)CC(=O)C(C=NCC2CCN(C(=O)Nc3ccc(Cl)c(Cl)c3)CC2)=C(O)C1", "Potency": "inconclusive [inhibitor, single point]"}, {"compound": "COc1cc2ccccc2cc1C(=O)Nc1ccc(O)cc1", "Potency": "inconclusive [inhibitor, partial curve]"}, {"compound": "[N-]=[N+]=NC[C@H](Cc1ccccc1)N1CC[C@@H](OCc2ccccc2)CCC1=O", "Potency": "inconclusive [inhibitor, single point]"}, {"compound": "CCN(CCCNC(=O)COc1cc(=O)n(C)c2ccccc12)c1cccc(C)c1", "Potency": "inconclusive [inhibitor, single point]"}, {"compound": "O=C1CCN(Cc2ccccc2)CCN1CCSc1ccccc1", "Potency": "inconclusive [inhibitor, single point]"}, {"compound": "CCC1COCCS(=O)(=O)N1Cc1ccc(Cl)cc1", "note": "(stereo unspecified)", "Potency": "inconclusive [inhibitor, single point]"}, {"compound": "Cc1ccc(C)c(N(CC(=O)NCCSCc2ccco2)S(C)(=O)=O)c1", "activity change, negative = growth inhibition": "inconclusive: -4.69% [inhibitor]"}, {"compound": "COc1cc(C=O)ccc1OCCCOc1ccc([N+](=O)[O-])cc1", "Potency": "inconclusive [inhibitor, single point]"}, {"compound": "Cn1nccc1C(=O)N1CCCC(C(=O)c2ccc(Oc3ccccc3)cc2)C1", "note": "(stereo unspecified)", "Potency": "inconclusive [inhibitor, partial curve]"}, {"compound": "Cc1cccc(NC(=O)c2ccc3ccccc3n2)n1", "Potency": "inconclusive [inhibitor, single point]"}, {"compound": "COC(=O)Nc1ccc(S(=O)(=O)n2cnc3ccccc32)cc1", "Potency": "inconclusive [inhibitor, single point]"}, {"compound": "COc1cccc(NC(=O)C(=O)NCCCN2CCCC2=O)c1", "activity change, negative = growth inhibition": "inactive: -1.44%"}, {"compound": "CCOc1ccc(CNC(=O)c2cc3c(=O)n(Cc4cccs4)ccc3nc2C)cc1", "Potency": "inconclusive [inhibitor, single point]"}, {"compound": "CC/C(C)=N\\Nc1nc(-c2cc3cc(OC)ccc3oc2=O)cs1", "Potency": "active: 18.4 µM"}, {"compound": "Cc1ccc(CNC(=O)Nc2ccc3c(c2)N(C)C(=O)CS3)cc1", "Potency": "inconclusive [inhibitor, single point]"}, {"compound": "CC(C)NC(=O)C1CCN(C2CCN(C(=O)c3cc4c(s3)CCCCC4)CC2)CC1", "Potency": "inconclusive [inhibitor, partial curve]"}, {"compound": "O=C1C(Cc2ccc(O)cc2)NC(=S)N1C1CCCCC1", "note": "(stereo unspecified)", "activity change, negative = growth inhibition": "inactive: -23.8%"}, {"compound": "Cc1ccc(C2CC(C(F)F)n3ncc(C(=O)Nc4cnn(Cc5ccccc5C)c4)c3N2)cc1", "note": "(stereo unspecified)", "Potency": "inconclusive [inhibitor, single point]"}, {"compound": "COc1cccc2cc(-c3ccccc3)c(=O)oc12", "activity change, negative = growth inhibition": "inactive: -25.1%"}, {"compound": "CCOC(=O)c1c(/N=C/C2C(=O)CC(C)(C)CC2=O)sc(C)c1C", "activity change, negative = growth inhibition": "inactive: -3.59%"}, {"compound": "C#CCN(C[C@@H]1[C@@H](OC(=O)NCc2ccco2)[C@@H](OC(=O)NCc2ccco2)Cn2c(=O)n(CCCCCC)c(=O)n21)S(=O)(=O)c1ccc(C)cc1", "Potency": "active: 9.2 µM"}, {"compound": "COC(=O)c1c(NC(=O)CSc2nnc(CNc3ccc(Cl)cc3)o2)sc(C)c1C", "Potency": "inconclusive [inhibitor, single point]"}, {"compound": "C=C(C)CSc1nc(N)c(C#N)c(-c2ccc(C)cc2)c1C#N", "Potency": "inconclusive [inhibitor, partial curve]"}, {"compound": "COc1cccc(CNC(=O)c2cc3n(n2)CCCN(Cc2ccc(C)cc2)C3=O)c1OC", "Potency": "active: 16.4 µM"}, {"compound": "COc1ccc(-c2nc3ccc(NS(=O)(=O)c4ccccc4)cc3o2)cc1", "activity change, negative = growth inhibition": "inactive: -105%"}, {"compound": "COc1ccc2c(Sc3ccccc3)c(C(=O)NCc3ccc(OC(C)C)cc3)[nH]c2c1", "Potency": "inconclusive [inhibitor, single point]"}, {"compound": "CCCc1nc(SCC(=O)NC2CCCC2)c2ccccc2n1", "Potency": "inconclusive [inhibitor, single point]"}, {"compound": "c1ccc2c(OCCCCN3CCCC3)cccc2c1", "Potency": "active: 25.9 µM"}, {"compound": "CCCN1CCN(C(c2cc3cc(OCC)ccc3[nH]c2=O)c2nnnn2C2CCCCC2)CC1", "note": "(stereo unspecified)", "Potency": "inconclusive [inhibitor, single point]"}, {"compound": "Nc1c(C(=O)NCc2ccc3c(c2)OCO3)c2nc3ccccc3nc2n1CCCN1CCOCC1", "Potency": "inconclusive [inhibitor, single point]"}, {"compound": "COc1cccc(CN2CCC2(C)C(=O)Nc2cnc3ccccc3c2)c1F", "note": "(stereo unspecified)", "Potency": "active: 18.4 µM"}, {"compound": "COCCn1c(C)cc(C2=NNC(=NC3CC3)SC2)c1C", "Potency": "inconclusive [inhibitor, partial curve, poor fit]"}, {"compound": "C/C(=N/OC(=O)C1CC12CCC2)c1ccc(Br)cc1", "note": "(stereo unspecified)", "activity change, negative = growth inhibition": "inactive: -4.56%"}, {"compound": "COC(=O)c1ccc(Cn2c(C)c(C(=O)NCc3cccc(C(F)(F)F)c3)sc2=O)o1", "Potency": "inconclusive [inhibitor, single point]"}, {"compound": "CC1CCC2(CC1)NC(=O)c1ccccc1O2", "note": "(stereo unspecified)", "Potency": "inconclusive [inhibitor, partial curve]"}, {"compound": "CC(C)(C)c1ccc(NC(=O)c2ccccc2)c([N+](=O)[O-])c1", "Potency": "inconclusive [inhibitor, partial curve]"}, {"compound": "CCOC(=O)C1(Cc2ccccc2)CCCN(C(=O)c2ccc(-n3ccnc3)cc2)C1", "note": "(stereo unspecified)", "Potency": "inconclusive [inhibitor, single point]"}, {"compound": "Cc1ccc(S(=O)(=O)Nc2ccc(F)c(F)c2O)cc1", "Potency": "inconclusive [inhibitor, single point]"}, {"compound": "CCOc1ccc(-n2c(SCC(=O)NCc3ccco3)nc3c([nH]c4ccccc43)c2=O)cc1", "Potency": "inconclusive [inhibitor, single point]"}, {"compound": "Cc1ccccc1NC(=O)n1ncc2cc(Cl)ccc21", "activity change, negative = growth inhibition": "inactive: -19.3%"}, {"compound": "CC(Cc1ccccc1)NC(=O)CC(c1ccccc1)c1ccccc1O", "note": "(stereo unspecified)", "Potency": "inconclusive [inhibitor, single point]"}, {"compound": "O=C(CCN1N=C(c2ccccc2)CCC1=O)NCC1CCCO1", "note": "(stereo unspecified)", "activity change, negative = growth inhibition": "inactive: 7.75%"}, {"compound": "COc1ccc(Cl)cc1NC(=O)C/C(C)=N/NC(=O)Cc1ccccc1", "activity change, negative = growth inhibition": "inactive: -3.92%"}, {"compound": "Cc1cccc(-c2nnc3n(CCc4ccccc4)c(=O)c4ccccc4n23)c1", "Potency": "active: 25.9 µM"}, {"compound": "O=C(O)CCn1nnc2ccccc21", "activity change, negative = growth inhibition": "inactive: 3.8%"}, {"compound": "COc1cc(/C=C2\\SC(=S)N(CCCCC(=O)O)C2=O)ccc1OS(=O)(=O)c1ccc(C)cc1", "Potency": "inconclusive [inhibitor, single point]"}, {"compound": "C[N+]1(CC(=O)c2c3ccccc3cc3ccccc23)CCOCC1", "Potency": "active: 10 µM"}, {"compound": "CCCCc1c(-c2cccc(OC)c2)ncn1CCc1ccccc1OC", "Potency": "active: 18.4 µM"}, {"compound": "Cc1ccc(C)c(NC(=O)N2CCN(C)c3ncccc32)c1", "Potency": "inconclusive [inhibitor, partial curve]"}, {"compound": "CCC(=O)N1CCC1(C)C(=O)Nc1nccs1", "note": "(stereo unspecified)", "activity change, negative = growth inhibition": "inconclusive: -9.22% [inhibitor]"}]}]}
